The list shows a part of the results. The full chains were built here from the parent and the listed change. Values near 0.05 are background.
B1: TEV protease; numbered along this chain (parent)
chain: MGESLFKGPRDYNPISSSICHLTNESDGHTTSLYGIGFGPFIITNKHLFRRNNGTLVVQSLHGVFKVKDTTTLQQHLVDGRDMIIIRMPKDFPPFPQKLKFREPQREERICLVTTNFQTKSMSSMVSDTSCTFPSGDGIFWKHWIQTKDGQCGSPLVSTRDGFIVGIHSASNFTNTNNYFTSVPKNFMELLTNQEAQQWVSGWRLNADSVLWGGHKVFMVKPEEPFQPVKEATQL

Variants of: B1
Experiment: raw area under fraction-flipped curve 0-4 h after induction (AUC4h, not background-subtracted), DNA-recorder readout of cleavage of the substrate (dimensionless); higher = more cleavage of the substrate by the protease variant
Settings: temperature: 34 °C; time window: 0-4 h after rhamnose induction
Procedure: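 In vivo DNA recorder in E. coli TOP10(DE3) ΔrhaA at 34 °C. Each TEVp single-site mutant (parent TEVp 0) is paired with a single-site variant of the 7-mer TEVs (canonical ENLYFQ|S). The substrate sits between flexible linkers in a Bxb1-sfGFP-TEVs-SsrA fusion, so cleavage stabilises Bxb1 and speeds flipping of a recombination array, read by NGS. The value is the raw area under the fraction-flipped curve over 0-4 h after rhamnose induction (AUC4h), with ≥20 reads per time point. It is not background-subtracted; inactive controls average about 0.047.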
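Note: Bxb1 expression induced with 0.2% (w/v) L-rhamnose at OD600 near 0.5, cultures sampled hourly, flipped fraction per protease–substrate barcode pair counted by paired-end Illumina sequencing.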

Variant	area with substrate ENLAFQS	area with substrate ENLDFQS	area with substrate ENLEFQS	area with substrate ENLFFQS	area with substrate ENLHFQS	area with substrate ENLIFQS	area with substrate ENLLFQS	area with substrate ENLNFQS	area with substrate ENLQFQS	area with substrate ENLRFQS	area with substrate ENLSFQS	area with substrate ENLVFQS	area with substrate ENLWFQS	area with substrate ENLCFQS	area with substrate ENLKFQS	area with substrate ENLMFQS	area with substrate ENLPFQS	area with substrate ENLGFQS	area with substrate ENLTFQS
MGESLFKGPRDYNPISSSICHLTNESDGHTTSLYGIGFGPFIITNKHLFRRNNGTLVVQSLHGVFKVKDTTTLQQHLDDGRDMIIIRMPKDFPPFPQKLKFREPQREERICLVTTNFQTKSMSSMVSDTSCTFPSGDGIFWKHWIQTKDGQCGSPLVSTRDGFIVGIHSASNFTNTNNYFTSVPKNFMELLTNQEAQQWVSGWRLNADSVLWGGHKVFMVKPEEPFQPVKEATQL [V78D]	0.0658	0.047	0.058	0.0532	0.0595	0.0639	0.0612	0.062	0.0403	0.0065	0.0562	0.0364	0.0634	–	–	–	–	–	–
MGESLFKGPRDYNPISSSICHLTNESDGHTTSDYGIGFGPFIITNKHLFRRNNGTLVVQSLHGVFKVKDTTTLQQHLVDGRDMIIIRMPKDFPPFPQKLKFREPQREERICLVTTNFQTKSMSSMVSDTSCTFPSGDGIFWKHWIQTKDGQCGSPLVSTRDGFIVGIHSASNFTNTNNYFTSVPKNFMELLTNQEAQQWVSGWRLNADSVLWGGHKVFMVKPEEPFQPVKEATQL [L33D]	0.0518	0.0567	0.056	0.0531	0.057	–	0.0627	0.0542	–	0.05	0.0503	–	0.0528	0.0553	0.068	0.0571	0.0391	–	–
MGESLFKGPRDYNPISSSICHLTNESDGHTTSLYGIGFGPFIITNKHLFRRNNGTLVVQSLHGVFKVKDTTTLQQHLVDGRDMIIIRMPKDFPPFPQKLKFREPQREERICLVTTNFQTKSMSSMVSDTSCTFPSGDGIFFKHWIQTKDGQCGSPLVSTRDGFIVGIHSASNFTNTNNYFTSVPKNFMELLTNQEAQQWVSGWRLNADSVLWGGHKVFMVKPEEPFQPVKEATQL [W141F]	0.0545	0.0563	–	0.0778	0.0611	–	0.0791	0.0517	0.0697	0.0568	0.0542	0.0806	–	0.0564	0.0772	0.0635	0.0564	0.0691	0.048
MGESLFKGPRDYNPISSSICHLTNESDGHTTSLYGIGFGPFIITNKHLFRRNNGTLVVQSLHGVFKVKDTTTLQQHLVDGRDLIIIRMPKDFPPFPQKLKFREPQREERICLVTTNFQTKSMSSMVSDTSCTFPSGDGIFWKHWIQTKDGQCGSPLVSTRDGFIVGIHSASNFTNTNNYFTSVPKNFMELLTNQEAQQWVSGWRLNADSVLWGGHKVFMVKPEEPFQPVKEATQL [M83L]	0.0704	0.0571	–	–	–	–	–	–	–	0.0566	0.0645	–	0.0625	–	0.0661	0.0738	0.0402	–	–
MGESLFKGPRDYNPISSSICHLTNESDGHTTSLYGIGFGPFIITNKHLFRRNNGTLVVQSLHGVFKVKDTTTLQQHLVDGRDMIIIRMPKDFPPFPQKLKFREPQREERICLVTTNFQTKSMSSMVSDTSCTFPSGDGIFWKHWIQTKPGQCGSPLVSTRDGFIVGIHSASNFTNTNNYFTSVPKNFMELLTNQEAQQWVSGWRLNADSVLWGGHKVFMVKPEEPFQPVKEATQL [D149P]	0.0697	0.0461	–	–	0.0707	–	–	0.0643	–	–	–	0.0835	–	–	0.0654	–	–	–	–
MGESLFKGPRDYNPISSSICHLTNESDGHTTSLYGIGFGPFIITNKHLFRRNNGTLVVNSLHGVFKVKDTTTLQQHLVDGRDMIIIRMPKDFPPFPQKLKFREPQREERICLVTTNFQTKSMSSMVSDTSCTFPSGDGIFWKHWIQTKDGQCGSPLVSTRDGFIVGIHSASNFTNTNNYFTSVPKNFMELLTNQEAQQWVSGWRLNADSVLWGGHKVFMVKPEEPFQPVKEATQL [Q59N]	0.0636	0.0732	0.0625	0.0705	0.0765	0.0869	–	0.0693	–	–	–	0.092	0.0401	0.0647	0.0606	–	0.0707	–	–
MGESLFKGPRDYNPISSSICHLTNESDGHTTSLYGIGFGPFIITNKHLFRRNNGTLVVQSLHGVFKVKDTTTLQQHLVDGVDMIIIRMPKDFPPFPQKLKFREPQREERICLVTTNFQTKSMSSMVSDTSCTFPSGDGIFWKHWIQTKDGQCGSPLVSTRDGFIVGIHSASNFTNTNNYFTSVPKNFMELLTNQEAQQWVSGWRLNADSVLWGGHKVFMVKPEEPFQPVKEATQL [R81V]	0.0667	0.0516	–	–	0.0313	0.0634	0.104	0.0668	0.0883	0.073	0.0798	0.0787	–	–	0.0422	–	0.0505	–	–
MGESLFKGPRDYNPISSSICHLTNESDGHTTSLYGIGFGPFIITNKHLFRRNNGTLVVQSLHGVFKVKDTTTLQQHLVDGRDMIIIRMPKDFPPFPYKLKFREPQREERICLVTTNFQTKSMSSMVSDTSCTFPSGDGIFWKHWIQTKDGQCGSPLVSTRDGFIVGIHSASNFTNTNNYFTSVPKNFMELLTNQEAQQWVSGWRLNADSVLWGGHKVFMVKPEEPFQPVKEATQL [Q97Y]	0.064	–	–	0.091	–	–	–	0.034	–	–	–	0.075	–	–	–	–	–	–	–
MGESLFKGPRDYNPISSSICHLTNESDGHTTSLYGIGFGPFIITNKHLFRRNNGTLVVQSLHGVFKVKDTTTLQQHLVDGRDMIIIRMPKDFPPFPQKLKFREPQREERICLVTRNFQTKSMSSMVSDTSCTFPSGDGIFWKHWIQTKDGQCGSPLVSTRDGFIVGIHSASNFTNTNNYFTSVPKNFMELLTNQEAQQWVSGWRLNADSVLWGGHKVFMVKPEEPFQPVKEATQL [T115R]	0.0785	0.0623	–	0.0799	0.0742	0.0807	–	0.06	–	0.119	0.0576	–	0.0756	–	0.0838	–	–	–	–
MGESLFKGPRDYNPISSSICHLTNESDGHTTSLYGIGFGPFIITNKHLFRRNNGTLEVQSLHGVFKVKDTTTLQQHLVDGRDMIIIRMPKDFPPFPQKLKFREPQREERICLVTTNFQTKSMSSMVSDTSCTFPSGDGIFWKHWIQTKDGQCGSPLVSTRDGFIVGIHSASNFTNTNNYFTSVPKNFMELLTNQEAQQWVSGWRLNADSVLWGGHKVFMVKPEEPFQPVKEATQL [V57E]	0.0462	0.0624	–	0.0816	0.0681	–	–	0.0391	0.063	0.0929	0.055	–	0.0786	–	0.0743	–	0.0657	0.0921	–
MGASLFKGPRDYNPISSSICHLTNESDGHTTSLYGIGFGPFIITNKHLFRRNNGTLVVQSLHGVFKVKDTTTLQQHLVDGRDMIIIRMPKDFPPFPQKLKFREPQREERICLVTTNFQTKSMSSMVSDTSCTFPSGDGIFWKHWIQTKDGQCGSPLVSTRDGFIVGIHSASNFTNTNNYFTSVPKNFMELLTNQEAQQWVSGWRLNADSVLWGGHKVFMVKPEEPFQPVKEATQL [E3A]	0.0531	–	–	0.0817	0.0738	0.0592	0.0701	–	–	0.0847	–	–	0.0528	0.0458	0.0673	0.0901	–	–	–
MGVSLFKGPRDYNPISSSICHLTNESDGHTTSLYGIGFGPFIITNKHLFRRNNGTLVVQSLHGVFKVKDTTTLQQHLVDGRDMIIIRMPKDFPPFPQKLKFREPQREERICLVTTNFQTKSMSSMVSDTSCTFPSGDGIFWKHWIQTKDGQCGSPLVSTRDGFIVGIHSASNFTNTNNYFTSVPKNFMELLTNQEAQQWVSGWRLNADSVLWGGHKVFMVKPEEPFQPVKEATQL [E3V]	0.0718	0.056	0.0548	0.103	0.0799	–	–	0.0688	–	0.096	0.0987	–	–	–	0.0907	–	–	–	–
MGESLFKGPRDYNPISSSICHLTNESDGHTTSLYGIGFGPFIITNKHLFRRNNGTLVVQSLHGVFKVKDTTTLQQHLVDGRDMIIIRMPKDFPPFPQKLKFREPQREERICLVTTNFQTKSMSSMVSDTSCTFPSGDGIFWKHWIQTKDGQCGSPLVSTRDGFIVGIHSASNFTNTNNYFTSVPKNFMELLTNQEAQQWVSGWRLNADSVLWGEHKVFMVKPEEPFQPVKEATQL [G214E]	0.0695	0.0697	0.0533	0.0507	0.0527	–	–	–	–	–	0.0661	–	–	0.0623	0.033	–	–	–	–
MGESLFKGPRDYNPISSSICHLTNESDGHTTSLYGIGFGPFIITNKHLFRRNNGTLVVQSLHGVFKVKDTTTLQQHLVDGRDMIIIRMPKDFPPFPQKLKFREPQREERICLVTTNFQTKSMSSMVSDTSCTFPSGDGIFWKHWIQTKDGQCGSPLVSTRDGFIVGIHSASNFTNTNNYFTSVPKNFMELLTNQEAQQWVSGWRLNADSVLWTGHKVFMVKPEEPFQPVKEATQL [G213T]	0.0472	–	0.0618	0.0631	0.0795	–	0.0519	0.0564	–	0.0615	–	–	–	0.0695	–	–	–	0.0681	0.0784
MGESTFKGPRDYNPISSSICHLTNESDGHTTSLYGIGFGPFIITNKHLFRRNNGTLVVQSLHGVFKVKDTTTLQQHLVDGRDMIIIRMPKDFPPFPQKLKFREPQREERICLVTTNFQTKSMSSMVSDTSCTFPSGDGIFWKHWIQTKDGQCGSPLVSTRDGFIVGIHSASNFTNTNNYFTSVPKNFMELLTNQEAQQWVSGWRLNADSVLWGGHKVFMVKPEEPFQPVKEATQL [L5T]	0.0504	0.0455	–	0.115	0.1	–	–	0.0576	–	0.0785	0.0808	0.0439	0.0563	–	0.0975	–	0.0516	0.0381	–
MGESLFKGPRDYNPISSSICHLTNESDGHTTSLYGIGFGPFIITNKHLFRRNNGTLVVQSLHGVFKVKDTTTLQQHLVDGRDMIIIRMPKDFPPFPQKLKFREPQREERICLVTTNFQTKSMSSMVSDTSCTFPSGDGIFWKHWIQTKDGQCGSPLVSTRDGFIVGIHSASNFTNTNNYFTSVPKNFMELLTNQEAQQWVSGWRLNADSVLWGGHKVFMVKPEEPFQPVKEAWQL [T233W]	0.0533	0.0375	0.0418	0.11	0.0714	0.0727	0.0858	0.0611	–	0.08	0.0731	–	0.0776	–	–	–	0.0476	–	–
MGESLFKGPRDYNPISSSICHLTNESDGHTTSLYGIGFGPFIITNKHLFRRNNGTLVVQSLHGVFKVKDTTTLQQHLVDGRDMIIIRMPKDFPPFPQKLKFREPQREERICLVTTNFQTKSMSSMVSDTSCTFPSGDGIFWKHWIQTKDGQCGSPLVSTRDGFIVGIHSASNFTNTNNYFTSVPKNFMELLTNIEAQQWVSGWRLNADSVLWGGHKVFMVKPEEPFQPVKEATQL [Q194I]	0.0986	–	–	0.104	–	0.0907	–	0.0637	0.0558	–	0.0822	–	0.0579	–	0.0752	–	–	–	–
MGESLFKGPRDYNPISSSICHLTNESDGHTTSLYGIGFGPFIITNKHLFRRNNGTLVVQSLHGVFKVKDTTTLQQHLVDGRDMIIIRMPKDFPPFPQKLKFREPQREERICLVTTNFQTKSMSSMVSDTSCTFPSGDGIFWKHWIQTLDGQCGSPLVSTRDGFIVGIHSASNFTNTNNYFTSVPKNFMELLTNQEAQQWVSGWRLNADSVLWGGHKVFMVKPEEPFQPVKEATQL [K148L]	0.0685	0.0571	0.0614	0.0904	–	–	–	0.0772	0.0595	0.0586	0.0501	–	0.046	–	0.0779	–	–	–	–
MGEALFKGPRDYNPISSSICHLTNESDGHTTSLYGIGFGPFIITNKHLFRRNNGTLVVQSLHGVFKVKDTTTLQQHLVDGRDMIIIRMPKDFPPFPQKLKFREPQREERICLVTTNFQTKSMSSMVSDTSCTFPSGDGIFWKHWIQTKDGQCGSPLVSTRDGFIVGIHSASNFTNTNNYFTSVPKNFMELLTNQEAQQWVSGWRLNADSVLWGGHKVFMVKPEEPFQPVKEATQL [S4A]	0.0692	0.0701	–	0.0935	–	–	–	0.0678	–	0.0771	–	–	0.0727	–	0.0882	–	–	0.0076	–

Source: the supplement of paper PMC12217912
